# Data reported in the supplement of paper PMC11417369.
# ± gives the standard deviation of the averaged measurements. The list shows a part of the results.
# Test system: PfAP2-LT AP2 domain (GST-tagged)
# Test: gcPBM binding intensity (ln(normalized median fluorescence intensity)); higher = stronger DNA binding
# How it was run: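 Each value is the highest Masliner-normalised natural-log median intensity across replicate spots of either orientation of a probe. The probes were primer-extended double-stranded 36-bp intergenic genomic sequences on an Agilent 4 × 180k array, alongside negative controls, exposed for 1 h to GST-tagged P. falciparum DNA-binding domains expressed in E. coli. Bound protein was picked up with Alexa488 anti-GST antibody and scanned at 488 nm.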
row,Sequence,gcPBM binding intensity (ln)
1,ATATATCTATATAGAAATGTATATATATATATGTGT [TGCATGCA_negctrl_site349],9 ± 0.4
2,TATTATTCTACTATTATATTCTATATTATTTATAGT [CACACA_negctrl_site499],8.79 ± 0.49
3,TAAAATCAATGTTCTTGTACTTAAAATGTTTGTTCT [XGTACX_site5490],8.7 ± 0.57
4,AGTATAAAATTTGGTTGTACATTTTTAAAAAAATTA [XGTACX_site7519],8.29 ± 0.42
5,AAAATTAAATTATTTACACACAATATTAAAATATTT [CACACA_site3244],8.57 ± 0.47
6,TTTTTTTTTTTTTATACACACATTAAAATAAAAAAG [CACACA_site3946],8.33 ± 0.34
7,CTCTTCCTTAATTTTTGTACTTAAAATTTTTTTTTT [XGTACX_site1628],8.7 ± 0.45
8,AAAGAAAAAAAAAAAACACACAAAAAAAATCAAAAT [CACACA_site2871],9.04 ± 0.57
9,TTATGCAAAAATAAATCAATATGTTGATATGTAAAT [GTGCAC_negctrl_site128],8.73 ± 0.45
10,ATATAATTTAATTTCTGTACATAAGAGAAAAAACAA [XGTACX_site4865],8.54 ± 0.39
11,AACATATACTGTTTATGTACACATTGTTATATTAAT [XGTACX_site4276],8.96 ± 0.3
12,TACATTTTATGCATTTGTACACAAATAAATAAATAA [XGTACX_site2652],8.49 ± 0.42
13,ACTTTAAAAAGATTCACACAAAATATATAAAAATAT [CACACA_site5334],8.54 ± 0.5
14,ATATCAATTTTTGGTGGTACGTAGGAAGTTTCAGAA [XGTACX_site6881],8.63 ± 0.4
15,TACGAAAGGTAATATTGTACATTACAAAATTTTATA [XGTACX_site5512],8.64 ± 0.39
16,AATAAGCAGAAACACACACACAAAAAAAAAAAAAAA [CACACA_site719],9.55 ± 0.68
17,TATGTATAAATATTAACACACAAAAAAAAAAAAAAA [CACACA_site6938],8.74 ± 0.4
18,ATATAAACAAAGCAGTGCACGTAAACAAAACATATA [CACACA_negctrl_site1076],9.4 ± 0.38
19,GTTTGATAACACCTACAAACTCTTTTTTTTTTTTTT [CACACA_negctrl_site1134],8.53 ± 0.44

row,Sequence,gcPBM binding intensity (ln)
1,CATAATATTAAATCAGTGCAAATATACAGAATAAAT [GTGCAC_site9786],9.07 ± 0.47
2,AAATGAAGATTTAAATGTACGAGAGGGTATACAAAT [XGTACX_site5075],8.95 ± 0.42
3,GACTTCTCCATATACACACACCAACAAATATAAAAA [CACACA_site7331],9.24 ± 0.38
4,AAATTTATAAATTAAAGTACATATTTCTTGAATATT [XGTACX_site859],8.45 ± 0.35
5,TATTAAATTATATAGACACACATTATGTATATATAT [CACACA_site345],8.87 ± 0.41
6,TATAGATACACTTTGTGTACATAAAAATTGTATTAA [XGTACX_site7137],8.67 ± 0.4
7,CTATACAATAAAAATTGTACATACATATATGTTATA [XGTACX_site5309],8.69 ± 0.34
8,AATTTTTCTTTTTTTTGTACAGAATATATATTTTAT [XGTACX_site1419],8.75 ± 0.48
9,ATAATATGTTATTAAGTGCATATTAATTATTATTAT,8.62 ± 0.36
10,ATATTTATGTAATGTTTGATTTTTTTTTTATGTGTG [CACACA_negctrl_site1422],8.76 ± 0.52
11,ACATATACATACATATGTACATATACATAAATATAT [XGTACX_site1285],8.98 ± 0.38
12,TATATATTTACATATTGTACAATATAAAAATAATTA [XGTACX_site19],8.45 ± 0.35
13,TACTGTTTAAAATATACACACATAATCAAAAAAAAA [CACACA_site2510],8.82 ± 0.38
14,AAAAAAAAAATTGAAAGTACACAAATGGGGTATTAT [XGTACX_site3960],8.79 ± 0.44
15,TCGTTATCCATCTTCACACATATATATAGTAATATA [CACACA_site5492],8.87 ± 0.35
16,TATATATATCTTTTGGTGCATATTTCGAATATATGT,8.95 ± 0.33
17,ACATTGCACCCGTGCACACATAGAAAAATAATTCTT [CACACA_site409],9.1 ± 0.41
18,GTAGTCCAAAAAAAGCGTACACAGAAAAAAAAAAAA [XGTACX_site4273],8.72 ± 0.45
19,ATAACAAAAATCCTTGTGCACTATTTTAATAGAGTC,8.85 ± 0.4

row,Sequence,gcPBM binding intensity (ln)
1,TACATCTTACTACTTATAATATAATATAGTATGAAT [TGCATGCA_negctrl_site8],8.49 ± 0.35
2,CATTATGATTAAATATGTACATATTATTATATAAAT [XGTACX_site2477],8.59 ± 0.4
3,TACAATATATTTATAGTGCATATTACTTTTAACTTT,8.65 ± 0.45
4,TCGTAATAATATAAATGTACTTTATTAATTAAAAGA [XGTACX_site3416],8.43 ± 0.4
5,AAAAAAAATTTTATCTGTACACATTTTTTTCTTTTT [XGTACX_site4229],8.77 ± 0.64
6,ATATAATTTATGTGCACACACTCCTATTTTTAGCTT [CACACA_site50],9.43 ± 0.42
7,AAAAAGTAAAAGAAAGCACACACACCGGTATATATG [CACACA_site9281],9.7 ± 0.25
8,AACAAAATAAGACACACACACAAATGTACCTATATA [CACACA_site7189],9.74 ± 0.41
9,TCTTTTTTAAATAAAAGTACAAAAAAAAATAAAAAA [XGTACX_site2670],8.36 ± 0.44
10,TAATATATATGTATGGCACACACGGATAAATATATA [CACACA_site930],9.28 ± 0.31
11,AAAAAAAATATGAAAACACACATATATAAATAAATA [CACACA_site113],8.88 ± 0.46
12,CATGCCTTTAAAAAGGTGCAAACATTTTCACAAACA,8.62 ± 0.57
13,AAATTATTTTGTTATCATTATATATAGATTGAATAT [XGTACX_negctrl_site165],8.42 ± 0.38
14,AACGGGTAATGCACAAAAAAAAAAAAATAAAATAAA [TGCATGCA_negctrl_site474],8.8 ± 0.65
15,TTCTTTTAAATTAGCTGTACGGTTTTCTACATGCAT [XGTACX_site356],9.22 ± 0.47
16,TTATCATATGTATGCATACACACAAAAAATTATATA [CACACA_site397],9.02 ± 0.38
17,CAAACAAATATATGTTGTACTTATTATATATACATA [XGTACX_site2998],8.6 ± 0.42
18,ATGTAATTCTTTTACTTTTTTTTTTTTTTTTTTTTT [CACACA_negctrl_site979],8.47 ± 0.46
19,ATAAATGAGCCATATTAAATCCGTTACACGGGTGTG [CACACA_negctrl_site1368],8.68 ± 0.42
